The results in this text go back to publication PMC12136788.

First the molecules themselves.
T1: UNK ZnF1-6 (called full-length) (human, UniProt Q9C0B0 30-357)
T1 sequence: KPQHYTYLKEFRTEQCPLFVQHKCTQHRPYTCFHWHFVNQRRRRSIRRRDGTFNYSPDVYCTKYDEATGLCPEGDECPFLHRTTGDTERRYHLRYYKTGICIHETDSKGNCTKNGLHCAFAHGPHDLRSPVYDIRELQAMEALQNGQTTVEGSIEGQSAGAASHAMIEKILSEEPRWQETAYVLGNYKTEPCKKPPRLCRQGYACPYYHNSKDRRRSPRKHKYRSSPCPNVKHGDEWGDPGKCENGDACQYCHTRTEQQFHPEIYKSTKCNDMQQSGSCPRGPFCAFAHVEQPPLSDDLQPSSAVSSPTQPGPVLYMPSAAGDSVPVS

B1: chr8:74853834:74853946:+|3pUTR|ENSG00000137558|unk|FALSE|unique (ssRNA)
RNA: GGGAGUUCUACAGUCCGACGAUCAAGUGCUUUUUUUUUUCUGAAUUAAUUAGGUAUUGGUAAAAUAUAUUUUUAAAUUUAGUUAGCUUUAUAAACACAAUUAGAAUUACAAUUAAUUAACAGAGGUAUAAUUGUCUCACUUUCCAACAGAGGAUUGAGCAUCA
B2: chrX:120613669:120613770:+|3pUTR|ENSG00000232119|msi1|total|mutant (ssRNA)
RNA: GGGAGUUCUACAGUCCGACGAUCUAUGCCUCCUGUAUAUCCUGUAAACAAAUAAGAUUGAUCAGAUUCAGGUUCAGUUUUUUCCGUGCCUUCUUUUGAGUAAAGUCAUACCAAACAGAUGCCCAGAACAUCUGGAUUUGGGUCCAACAGAGGAUUGAGCAUCA
B3: ENSG00000103657:stop:overlap|stop_codon|ENSG00000103657|stop_codon|NA|stop_codon (ssRNA)
RNA: GGGAGUUCUACAGUCCGACGAUCAGUUUUCUGUUGCUUUGACCAAAGAUGGUCAUGUGUAUACCUUUGGUCAAGGUGGUGAGUAGUCACUAUGACCUCCUUUCAGUAUAGAUAAUUUUCCACUUCUCUUUCAUGUGCUUUAUUCAACAGAGGAUUGAGCAUCA
B4: chr2:54972555:54972835:-|3pUTR|ENSG00000115310|msi1_unk|FALSE|overlapping (ssRNA)
RNA: GGGAGUUCUACAGUCCGACGAUCUGUGCACUGUGUAUGGUCCGUGUAGAUUGAUGCAGAUUUUCUGAAAUGAAAUGUUUGUUUAGACGAGAUCAUACCGGUAAAGCAGGAAUGACAAAGCUUGCUUUUCUGGUAUGUUCUAGGCAACAGAGGAUUGAGCAUCA
B5: ENSG00000168615:stop:overlap|stop_codon|ENSG00000168615|stop_codon|NA|stop_codon (ssRNA)
RNA: GGGAGUUCUACAGUCCGACGAUCCUGGCCAGAAUACCCAAAAUAAUUGGCAGAUGUCAAAUUUGGCUUUCUGUGUUUAUUACUAGAGCAUAAACAUUUCUAGUUUUGUUUGAGUGUUUUACAGUCCUUUUUGGCAGUUAGGUACAACAGAGGAUUGAGCAUCA
B6: chr16:56429670:56429771:-|3pUTR|ENSG00000167005|msi1|total|mutant (ssRNA)
RNA: GGGAGUUCUACAGUCCGACGAUCCAAUCACUGAGACUGCAUCAGAGUUUGCAAUUUUGUAUGUUUCAUUGCCAAAGAAGGCUCCGUGGUUGUUGACUGCCGUAUAAGUCAGCUUUCUGCCGCAUAAGAUUUGAUUUUCCCAUACAACAGAGGAUUGAGCAUCA
B7: ENSG00000070961:be:win_2451|CDS|ENSG00000070961|bound_else_gene|NA|bound_elsewhere_windowed (ssRNA)
RNA: GGGAGUUCUACAGUCCGACGAUCUGGAACUGAUGUAGCUAAAGAAGCAUCCGAUAUUAUUCUCACAGAUGACAACUUUACAAGCAUUGUUAAAGCAGUUAUGUGGGGACGAAAUGUCUAUGACAGCAUCUCAAAAUUCCUUCACAACAGAGGAUUGAGCAUCA
B8: ENSG00000136451:be:win_3701|3pUTR|ENSG00000136451|bound_else_gene|NA|bound_elsewhere_windowed (ssRNA)
RNA: GGGAGUUCUACAGUCCGACGAUCUCUCUGGUGGGCUGGCAGUCAUAAUUCACAAUUCAGACAGCCCAGGCUUCCUCCACAGUGGUCCAAGGAGCAGUCCUCAGUGGGGGCAGGUGUGGGCCCUACCCCUAAGCUAGAAUGUGGCAACAGAGGAUUGAGCAUCA
B9: chr22:38866210:38866312:-|CDS|ENSG00000183741|unk|FALSE|bound_elsewhere (ssRNA)
RNA: GGGAGUUCUACAGUCCGACGAUCGACGGUCACAAUCAAGGAAUUCUGCAACCCUGAGGAUUUCGAGAAGGUGGCUGCUGGGGUAGCAGGCGCCGCUGGGGGCGGUGGCAGCAUUGGGGCGAGCAAGUGAGGGGGCUCCACCAACAACAGAGGAUUGAGCAUCA
B10: ENSG00000198589:be:win_701|CDS|ENSG00000198589|bound_else_gene|NA|bound_elsewhere_windowed (ssRNA)
RNA: GGGAGUUCUACAGUCCGACGAUCAUACAUGGCUUAGAAUGGAUCCUGUAAAUAACAUCAAUGUAGAUAAGGAUAAACCAUAUUUGUAUUGUUUCAGAACCAGCAAAGGUCUUGGCUAUUCUGCUCAUUUUGUUGGAGGCUGUUCAACAGAGGAUUGAGCAUCA
B11: chr11:92891788:92891889:+|3pUTR|ENSG00000165323|msi1|FALSE|bound_elsewhere (ssRNA)
RNA: GGGAGUUCUACAGUCCGACGAUCAUGAGGCUUUUUGGGUUCCAUUUGGUGGGUGGGGGAGGAAGUUAAAGUUGUUUGAACAUUAGAAAGAAUGUGAUUAUCUGGUUGGUUUUGUGUUUUCUGGUAAAUAUUCCAGUUGGUAAACAACAGAGGAUUGAGCAUCA
B12: chr2:11642538:11642650:+|3pUTR|ENSG00000196208|unk|total|mutant (ssRNA)
RNA: GGGAGUUCUACAGUCCGACGAUCCGAAGAGUUGAUGUCAAUCUUUUUUUCCUAAGAAAAAAAGUCCGCGAGUAUUAAAUAUUCCGAUCAAUGUUUAUAAAAUGAUUACUUUGUAUAUCUCAUUAUUCCUAUUUUGGAAUAAAACAACAGAGGAUUGAGCAUCA
B13: chr11:134247321:134247422:+|3pUTR|ENSG00000151502|unk|FALSE|unique (ssRNA)
RNA: GGGAGUUCUACAGUCCGACGAUCCCUUUUCAGAGCAUGAGGUCAGGCUCUGUAUCCCUCCUUUUCCUAGCUGAUAUUCUAACUAGAAGCAUUUGUCAAUUCCUUUGCCUCCCAACUGACAACACACGUUCAUUUUCCAACCUUCAACAGAGGAUUGAGCAUCA
B14: ENSG00000070961:be:win_6351|3pUTR|ENSG00000070961|bound_else_gene|NA|bound_elsewhere_windowed (ssRNA)
RNA: GGGAGUUCUACAGUCCGACGAUCCAGAUGUCAGUUUUGAACCAAGAAUUGGUGAUUUGUUUAUAAGAAAAAAACUGGCUUCAUUUCUGUGAAAUUGCUCUUUGAAAAUUUCUUUUUACACGUGUAAGCCAACUGAGAUACCGUCAACAGAGGAUUGAGCAUCA
B15: chr5:172042892:172042993:-|3pUTR|ENSG00000072786|msi1|FALSE|unique (ssRNA)
RNA: GGGAGUUCUACAGUCCGACGAUCGAUUCUCCCGCUUCAACCUUGAGUAGCUGGGACGACAGAUACAUGCUACUGCACCCAGCUAGGUUAAGGUUCUGUAUACUCUGUCUUUCUAAAGCAAUUCCCUGGAAAUUUUCUCAACAUCAACAGAGGAUUGAGCAUCA
B16: ENSG00000070961:be:win_2051|CDS|ENSG00000070961|bound_else_gene|NA|bound_elsewhere_windowed (ssRNA)
RNA: GGGAGUUCUACAGUCCGACGAUCAUCCUGUGAGACCUGAGGUGCCAGAUGCAAUUAAAAAGUGUCAGAGGGCUGGAAUUACUGUGCGGAUGGUCACUGGUGAUAAUAUUAAUACUGCUCGGGCCAUUGCUACCAAAUGUGGUACAACAGAGGAUUGAGCAUCA
B17: chr20:1470740:1471132:-|three_prime_utr|ENSG00000196209|control|control|control (ssRNA)
RNA: GGGAGUUCUACAGUCCGACGAUCUCAGUUCUUGUCUGCUUGGAAGAAAGAUUUCAGCCAAGAGACACACAGCAAAGGUGAAGUAGCAGAGUUUAUUGAAGAAAGAUAAAGUACGUUCCUAGAAAGGAGUGGGCUGACCUGGCUCAACAGAGGAUUGAGCAUCA
B18: ENSG00000052841:stop:overlap|stop_codon|ENSG00000052841|stop_codon|NA|stop_codon (ssRNA)
RNA: GGGAGUUCUACAGUCCGACGAUCAGAACCGAAUCCAGACCAUCCAGUGUCACUUAAUGCUGAAGAAGGGACGGCGCUCUCCUUAGUGCACUUCUUCCUUCUCUCUUUCUCUUUACUCAUGCUCUAAAAAAAAAGAAUAAGAAACAACAGAGGAUUGAGCAUCA
B19: chr3:168010103:168010202:-|3pUTR|ENSG00000173905|msi1_unk|FALSE|overlapping (ssRNA)
RNA: GGGAGUUCUACAGUCCGACGAUCGCUCAAACAUAAAUCUGCCUACUGAACUCUAGGAUAUUUAAUUACAAAAAUUAAGAACUUAGACUUUUUUAAAACUUUUGUAUUAGAAAUGCGCAUACAUUUAUAUGAAUAUAUUUUGAUCAACAGAGGAUUGAGCAUCA
B20: chr15:69268886:69268987:+|CDS|ENSG00000138604|unk|FALSE|bound_elsewhere (ssRNA)
RNA: GGGAGUUCUACAGUCCGACGAUCGGAGUUAAAGCUGUGUUUAUGAAUAAACAUGACUGGUAUGAAGAAUAUCCAACCACACCUAGCUCUUUUGUUUUAAAUGGCUUUAUGUAUUCUUUAAUUGGGCUGUAUGACUUAAAAGAACAACAGAGGAUUGAGCAUCA
B21: chr4:150265445:150265561:-|3pUTR|ENSG00000198589|unk|total|mutant (ssRNA)
RNA: GGGAGUUCUACAGUCCGACGAUCGGAUCCGCAAAGCAGAAAACUGGCUGCUGGGUUCUGCCGUUUUAAAAAAUCUAUAUUUUCCGUCAUAAUGAGAAGUCUAUUUUCACCAAUUAUGGAAACAUACAGUGGAGCAAGUAAACCCAACAGAGGAUUGAGCAUCA
B22: ENSG00000107863:be:win_5701|CDS|ENSG00000107863|bound_else_gene|NA|bound_elsewhere_windowed (ssRNA)
RNA: GGGAGUUCUACAGUCCGACGAUCAGCACCUUGGCUUCAACAAACAGGCCCCUUCUUUCCAUACCACCACAGUCACCUGACCAAAUAAACGGAGAAAGCUUCCAGAACGUGAGCAAAAAUGCUAGUUCUGCAGCGAAUGCCCAACAACAGAGGAUUGAGCAUCA

This is one part of the list.

In the test the target is T1, UNK ZnF1-6 (called full-length). Kind of test: nsRBNS (natural sequence RNA bind-n-seq); RBNS binding buffer (assumed for nsRBNS): 25 mM Tris pH 7.5, 150 mM KCl, 3 mM MgCl2, 0.01% Triton X-100, 500 ug/ml BSA, 20 U/ml SUPERase-In, 4 C; UNK is unkempt and MSI1 is Musashi-1; names of the RNAs are library labels; protein concentration not given here; high values mean tight binding.
B1 gave a binding signal of 171 enrichment R.
With B2, the binding signal was determined as 0.277 enrichment R.
As for B3, the binding signal was 0.846 enrichment R.
As to B4, the binding signal was 0.273 enrichment R.
B5 returned a binding signal of 0.532 enrichment R.
In the case of B6, the binding signal was 0.226 enrichment R.
With B7, the binding signal is 0.216 enrichment R.
B8: the binding signal stood at 0.776 enrichment R.
With B9, the binding signal was determined as 0.91 enrichment R.
With B10 the figure was 0.482 enrichment R; with B11, 1.22 enrichment R.
For the molecule B12, the binding signal was determined as 0.544 enrichment R.
Consider B13, for which the binding signal was 2.72 enrichment R.
On to B14, for which the binding signal was determined as 0.404 enrichment R.
Turning to B15, the binding signal was found to be 0.494 enrichment R.
In the case of B16, the binding signal was 0.647 enrichment R.
Molecule B17 had a binding signal of 0.518 enrichment R.
The molecule B18 showed a binding signal of 0.995 enrichment R.
On to B19, for which the binding signal is 12.6 enrichment R.
B20 showed a binding signal of 0.615 enrichment R.
B21 displayed a binding signal of 0.438 enrichment R.
In turn, B22 gave a binding signal of 0.589 enrichment R.
